# B1: MBP-MAD1:MAD2-6His, full length (complex)
# chain 1: MEDLGENTMVLSTLRSLNNFISQRVEGGSGLDISTSAPGSLQMQYQQSMQLEERAEQIRSKSHLIQVEREKMQMELSHKRARVELERAASTSARNYEREVDRNQELLTRIRQLQEREAGAEEKMQEQLERNRQCQQNLDAASKRLREKEDSLAQAGETINALKGRISELQWSVMDQEMRVKRLESEKQELQEQLDLQHKKCQEANQKIQELQASQEARADHEQQIKDLEQKLSLQEQDAAIVKNMKSELVRLPRLERELKQLREESAHLREMRETNGLLQEELEGLQRKLGRQEKMQETLVGLELENERLLAKLQSWERLDQTMGLSIRTPEDLSRFVVELQQRELALKDKNSAVTSSARGLEKARQQLQEELRQVSGQLLEERKKRETHEALARRLQKRVLLLTKERDGMRAILGSYDSELTPAEYSPQLTRRMREAEDMVQKVHSHSAEMEAQLSQALEELGGQKQRADMLEMELKMLKSQSSSAEQSFLFSREEADTLRLKVEELEGERSRLEEEKRMLEAQLERRALQGDYDQSRTKVLHMSLNPTSVARQRLREDHSQLQAECERLRGLLRAMERGGTVPADLEAAAASLPSSKEVAELKKQVESAELKNQRLKEVFQTKIQEFRKACYTLTGYQIDITTENQYRLTSLYAEHPGDCLIFKATSPSGSKMQLLETEFSHTVGELIEVHLRRQDSIPAFLSSLTLELFSRQTVA
# chain 2: [about 200 residues not listed]
# notes: MAD1 (mitotic arrest deficient 1); MAD2 (mitotic arrest deficient 2); In the pull-downs with phosphorylation bait and prey were incubated together with CCC and MPS1 kinase domain, so this prey met the kinases too; also called MBP-MAD1/2; ^MBPMAD1/2^FL; source: Tnao38 insect cells coinfected with baculoviruses, purified (HisTrap, ResourceQ)
# Target: T1, RZZS rings: mCherry-RZZ polymerized with farnesylated GFP-Spindly in the presence of MPS1 kinase domain (UniProt P50748 1-2209; Q9H900 1-591; O43264 1-779; Q96EA4 1-605, incubated with MPS1 kinase domain and ATP (the paper names T13 and S15 of ROD as the MPS1 sites) | farnesylated)
# T1 construct: ROD, subunit of the RZZ complex; Zwilch, subunit of the RZZ complex; ZW10, subunit of the RZZ complex; Spindly, dynein-dynactin adaptor; A polymer; also called polymerized RZZS; RZZS filaments; copies: + + +
# Test: co-sedimentation; pelleting assay: polymerized RZZS incubated with preys 2 hours at 20°C, 40% glycerol cushion, 100,000g 45 min at 20°C; 50 mM Hepes pH 8, 100 mM NaCl, 2 mM MgCl2, 1 mM TCEP
# Conditions: both partners purified
# T1 sequence (P50748 whole entry, chain 1 of 4, the tested form may be a part): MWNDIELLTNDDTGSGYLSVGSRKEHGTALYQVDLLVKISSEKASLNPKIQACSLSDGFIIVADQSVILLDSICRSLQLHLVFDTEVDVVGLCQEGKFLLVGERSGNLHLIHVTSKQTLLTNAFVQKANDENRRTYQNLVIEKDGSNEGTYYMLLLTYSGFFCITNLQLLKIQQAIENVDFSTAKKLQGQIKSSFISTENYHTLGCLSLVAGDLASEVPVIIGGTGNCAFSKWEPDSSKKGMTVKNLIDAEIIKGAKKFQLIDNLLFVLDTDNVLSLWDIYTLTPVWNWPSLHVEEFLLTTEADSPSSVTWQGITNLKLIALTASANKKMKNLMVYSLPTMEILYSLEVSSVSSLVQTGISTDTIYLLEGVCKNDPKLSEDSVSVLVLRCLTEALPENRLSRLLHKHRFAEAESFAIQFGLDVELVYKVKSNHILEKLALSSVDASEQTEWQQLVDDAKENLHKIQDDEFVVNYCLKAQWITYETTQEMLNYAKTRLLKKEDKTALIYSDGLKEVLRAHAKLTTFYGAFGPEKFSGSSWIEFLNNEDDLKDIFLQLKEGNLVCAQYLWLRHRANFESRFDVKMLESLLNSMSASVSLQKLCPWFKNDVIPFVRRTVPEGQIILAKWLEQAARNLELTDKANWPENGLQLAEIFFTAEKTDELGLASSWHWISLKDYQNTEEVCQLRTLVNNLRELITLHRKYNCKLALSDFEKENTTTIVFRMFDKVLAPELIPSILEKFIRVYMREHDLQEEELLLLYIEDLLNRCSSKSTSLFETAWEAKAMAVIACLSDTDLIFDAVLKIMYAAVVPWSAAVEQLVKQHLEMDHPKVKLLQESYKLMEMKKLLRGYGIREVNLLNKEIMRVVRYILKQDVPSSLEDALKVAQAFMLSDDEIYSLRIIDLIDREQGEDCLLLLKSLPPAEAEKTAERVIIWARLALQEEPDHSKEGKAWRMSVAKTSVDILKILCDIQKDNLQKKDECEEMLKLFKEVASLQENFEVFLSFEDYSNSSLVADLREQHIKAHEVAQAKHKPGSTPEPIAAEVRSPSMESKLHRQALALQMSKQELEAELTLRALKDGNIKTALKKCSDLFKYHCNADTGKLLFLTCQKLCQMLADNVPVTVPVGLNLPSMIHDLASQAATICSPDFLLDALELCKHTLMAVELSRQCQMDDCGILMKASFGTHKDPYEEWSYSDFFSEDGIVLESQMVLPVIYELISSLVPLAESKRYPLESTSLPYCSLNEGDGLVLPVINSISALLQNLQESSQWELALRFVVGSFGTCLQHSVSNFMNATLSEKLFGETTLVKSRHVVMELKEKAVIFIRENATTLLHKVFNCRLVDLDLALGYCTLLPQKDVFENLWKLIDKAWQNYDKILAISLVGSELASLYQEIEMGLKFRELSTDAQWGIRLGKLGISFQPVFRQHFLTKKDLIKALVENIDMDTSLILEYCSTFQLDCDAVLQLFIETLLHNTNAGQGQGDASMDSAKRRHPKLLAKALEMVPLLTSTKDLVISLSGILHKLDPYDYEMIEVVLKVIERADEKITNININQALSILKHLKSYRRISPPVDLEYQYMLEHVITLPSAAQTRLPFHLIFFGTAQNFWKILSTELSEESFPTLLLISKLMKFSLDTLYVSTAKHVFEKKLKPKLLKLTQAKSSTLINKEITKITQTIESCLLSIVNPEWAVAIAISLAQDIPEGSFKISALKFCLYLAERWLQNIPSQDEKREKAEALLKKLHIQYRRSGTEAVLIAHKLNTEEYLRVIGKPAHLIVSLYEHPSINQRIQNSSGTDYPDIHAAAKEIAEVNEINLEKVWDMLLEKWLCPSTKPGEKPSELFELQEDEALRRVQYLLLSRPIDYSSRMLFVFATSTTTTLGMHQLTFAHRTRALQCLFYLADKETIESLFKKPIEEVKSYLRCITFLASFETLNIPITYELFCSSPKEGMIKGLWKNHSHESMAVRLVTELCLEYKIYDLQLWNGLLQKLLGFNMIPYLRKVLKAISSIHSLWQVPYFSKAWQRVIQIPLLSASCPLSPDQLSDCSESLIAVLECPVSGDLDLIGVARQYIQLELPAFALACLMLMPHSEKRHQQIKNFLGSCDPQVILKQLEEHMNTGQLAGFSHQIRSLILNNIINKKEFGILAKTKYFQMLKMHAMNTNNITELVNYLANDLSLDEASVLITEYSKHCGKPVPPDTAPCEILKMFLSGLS
# T1 sequence (Q9H900 whole entry, chain 2 of 4, further chain, the tested form may be a part): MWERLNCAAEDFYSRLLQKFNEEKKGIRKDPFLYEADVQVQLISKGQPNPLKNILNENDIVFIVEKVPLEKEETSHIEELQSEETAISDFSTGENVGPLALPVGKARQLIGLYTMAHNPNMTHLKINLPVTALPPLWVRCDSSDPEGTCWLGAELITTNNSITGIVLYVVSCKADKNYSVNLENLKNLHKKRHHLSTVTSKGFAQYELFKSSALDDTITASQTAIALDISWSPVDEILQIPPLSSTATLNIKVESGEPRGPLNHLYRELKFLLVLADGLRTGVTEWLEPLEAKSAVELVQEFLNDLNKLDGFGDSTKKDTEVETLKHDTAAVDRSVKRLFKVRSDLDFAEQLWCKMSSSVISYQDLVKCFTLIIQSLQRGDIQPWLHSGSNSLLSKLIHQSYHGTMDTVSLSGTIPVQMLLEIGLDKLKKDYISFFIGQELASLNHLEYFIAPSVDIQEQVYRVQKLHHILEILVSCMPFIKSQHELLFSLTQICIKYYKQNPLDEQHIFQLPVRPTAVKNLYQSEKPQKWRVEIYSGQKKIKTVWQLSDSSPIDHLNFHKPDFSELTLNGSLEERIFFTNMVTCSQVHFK
# T1 sequence (O43264 whole entry, chain 3 of 4, further chain, the tested form may be a part): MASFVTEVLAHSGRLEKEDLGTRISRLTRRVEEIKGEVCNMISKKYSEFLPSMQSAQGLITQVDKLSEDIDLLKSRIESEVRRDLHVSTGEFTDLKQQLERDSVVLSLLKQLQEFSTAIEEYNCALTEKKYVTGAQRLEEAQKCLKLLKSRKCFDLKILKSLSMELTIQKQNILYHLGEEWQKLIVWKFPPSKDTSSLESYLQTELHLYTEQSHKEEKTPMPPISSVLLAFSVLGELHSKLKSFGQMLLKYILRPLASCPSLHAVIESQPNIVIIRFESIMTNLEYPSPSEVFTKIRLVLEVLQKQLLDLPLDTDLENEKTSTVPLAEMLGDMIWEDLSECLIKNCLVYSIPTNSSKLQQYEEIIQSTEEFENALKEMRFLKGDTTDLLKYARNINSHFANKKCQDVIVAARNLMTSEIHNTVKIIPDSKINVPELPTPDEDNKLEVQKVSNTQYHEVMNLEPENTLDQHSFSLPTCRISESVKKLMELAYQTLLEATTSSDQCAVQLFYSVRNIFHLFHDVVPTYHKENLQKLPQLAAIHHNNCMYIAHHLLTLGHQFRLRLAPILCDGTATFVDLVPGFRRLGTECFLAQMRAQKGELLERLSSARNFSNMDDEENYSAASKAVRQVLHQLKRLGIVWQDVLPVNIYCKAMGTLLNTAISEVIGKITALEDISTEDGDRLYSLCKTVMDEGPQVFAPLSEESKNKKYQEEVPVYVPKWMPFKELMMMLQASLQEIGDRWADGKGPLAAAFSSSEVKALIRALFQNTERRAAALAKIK
# T1 sequence (Q96EA4 whole entry, chain 4 of 4, further chain, the tested form may be a part): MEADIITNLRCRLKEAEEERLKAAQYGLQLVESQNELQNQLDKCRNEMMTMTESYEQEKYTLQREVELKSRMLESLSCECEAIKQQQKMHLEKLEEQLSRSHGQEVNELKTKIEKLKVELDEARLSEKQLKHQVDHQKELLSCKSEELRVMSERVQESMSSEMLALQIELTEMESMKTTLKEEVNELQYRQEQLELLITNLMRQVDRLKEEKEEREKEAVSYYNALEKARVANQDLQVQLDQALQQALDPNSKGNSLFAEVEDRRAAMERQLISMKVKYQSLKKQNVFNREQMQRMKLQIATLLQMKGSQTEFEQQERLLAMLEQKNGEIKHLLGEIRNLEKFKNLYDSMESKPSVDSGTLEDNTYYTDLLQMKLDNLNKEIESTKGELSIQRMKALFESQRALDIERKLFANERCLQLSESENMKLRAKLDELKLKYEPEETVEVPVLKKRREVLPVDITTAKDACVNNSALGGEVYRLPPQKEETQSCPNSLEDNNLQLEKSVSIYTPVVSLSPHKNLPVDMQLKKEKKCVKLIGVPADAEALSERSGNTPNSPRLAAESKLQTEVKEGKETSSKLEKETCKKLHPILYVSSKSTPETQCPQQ
binder,measurement,value
B1,binding result,binds

# — paper PMC12429063, “The BUB1 and BUBR1 paralogs scaffold the kinetochore fibrous corona” (Science Advances, 2025)
